# Whole data set: some 33,000 sequences, median “E-score (-0.5 to 0.5)” near -0.043, cut for the highest 2% near 0.37. Some of the results follow.
# Target: T1, Upc2 (UniProt Q12151)
# T1 sequence: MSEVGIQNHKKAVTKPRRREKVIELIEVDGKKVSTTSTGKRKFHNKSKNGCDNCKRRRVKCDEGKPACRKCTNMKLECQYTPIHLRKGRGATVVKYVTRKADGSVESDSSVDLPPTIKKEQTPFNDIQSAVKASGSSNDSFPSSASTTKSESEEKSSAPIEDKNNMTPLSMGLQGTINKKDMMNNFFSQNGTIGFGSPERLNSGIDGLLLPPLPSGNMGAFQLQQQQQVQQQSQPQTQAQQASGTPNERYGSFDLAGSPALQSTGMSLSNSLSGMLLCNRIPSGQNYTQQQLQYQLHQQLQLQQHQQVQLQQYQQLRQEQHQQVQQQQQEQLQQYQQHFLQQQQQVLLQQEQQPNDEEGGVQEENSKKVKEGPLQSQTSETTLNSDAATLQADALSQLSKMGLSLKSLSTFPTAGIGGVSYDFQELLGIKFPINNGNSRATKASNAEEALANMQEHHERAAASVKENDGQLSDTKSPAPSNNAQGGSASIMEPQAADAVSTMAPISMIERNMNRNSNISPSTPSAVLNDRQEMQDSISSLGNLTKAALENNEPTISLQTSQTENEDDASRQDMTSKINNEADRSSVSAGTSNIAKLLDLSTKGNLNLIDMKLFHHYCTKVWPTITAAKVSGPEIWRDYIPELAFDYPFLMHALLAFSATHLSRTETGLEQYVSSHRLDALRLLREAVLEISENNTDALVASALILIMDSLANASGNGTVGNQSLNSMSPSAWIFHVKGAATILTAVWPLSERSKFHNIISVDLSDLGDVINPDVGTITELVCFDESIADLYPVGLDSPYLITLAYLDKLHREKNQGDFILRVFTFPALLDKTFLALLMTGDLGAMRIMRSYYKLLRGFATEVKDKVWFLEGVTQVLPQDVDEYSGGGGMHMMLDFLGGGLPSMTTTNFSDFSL
# Assay: PBM E-score (8-mer binding enrichment) (E-score (-0.5 to 0.5)); higher = stronger / more preferred TF binding; most listed sequences are background and not binding sites
# Details: protein concentration: 200 nM; construct: GST-full length
# How it was run: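 Bound GST-tagged yeast transcription factors, applied at about 100-200 nM to double-stranded universal all-10-mer Agilent arrays, were detected with fluorescent anti-GST. Scans were normalised with masliner. A modified Wilcoxon-Mann-Whitney statistic, the E-score, was assigned to each ungapped eight-base word pooled with its reverse complement by the Universal PBM Analysis Suite.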
row,Sequence,PBM E-score
1,ATGCAGGG,-0.271
2,CCACTCGC,0.0979
3,CAGTCGGG,-0.0126
4,TACGCACA,0.245
5,CGCTGGGC,0.0229
6,ACAAATAA,0.126
7,TATTCGGA,0.124
8,GAACCGGA,-0.00053
9,CGACCGAC,0.0957
10,TGGGCGAA,-0.0874
11,AGGATGCA,-0.0759
12,ATCCGTTA,0.199
13,AGTAATCA,-0.141
14,CAAAGACA,-0.126
15,ACGTCCTA,-0.0897
16,GAACGCAC,0.0782
17,GCTATCAC,0.0212
18,GTACGCGA,0.347
19,TGGCCACA,-0.218
20,ACAAATTG,0.0673
21,ATATCCGG,-0.0439
22,CCTGGTTA,-0.225
23,TCTCAGCA,-0.137
24,ATCCACTC,-0.128
25,TCGAGCCA,-0.0555

row,Sequence,PBM E-score
1,ACCTTTTG,-0.0248
2,CTCCAGTC,-0.153
3,AGTGAGGG,-0.247
4,CGGAAACG,0.277
5,ACGGCATA,0.257
6,AAGGACTC,-0.138
7,AAACGTAG,0.204
8,AACAGTTG,-0.156
9,ATTAGCGC,0.133
10,ACCCGCCT,0.109
11,CAAACATA,-0.154
12,ATGTTCGG,-0.0847
13,ACGTGATC,0.0566
14,CTATACTA,0.192
15,AGACCAAA,-0.169
16,GCAATTAA,-0.0261
17,AAGGAGAG,-0.304
18,AATCTCGC,0.197
19,AAGCACAA,-0.107
20,CAGCATTA,0.0313
21,CTAGCCAG,-0.267
22,GGCTATAC,0.299
23,AACTTTTG,-0.0929
24,ACCTAACT,-0.0287
25,GAATCCGA,0.128

row,Sequence,PBM E-score
1,GATGTGGA,-0.074
2,AGGTGAAC,0.0761
3,CTTCGTAC,0.458
4,GACCCCCA,-0.217
5,CCTCAACG,0.0862
6,ATCATTCC,-0.0223
7,CTACAAAC,0.0709
8,TAGAGTCA,-0.305
9,ATGCTCCC,-0.12
10,GTTTTCCA,0.0934
11,ATCGGACG,-0.124
12,GGTGAAGA,-0.00573
13,ACTAGCGG,-0.175
14,CAAGGAAA,-0.189
15,ATACAGCA,0.08
16,TACTTGGA,0.0155
17,GTGACGGA,-0.222
18,CAGCCGGG,-0.327
19,TATGTTAA,0.0325
20,GGCCCTGA,-0.0842
21,CGCGACTA,0.138
22,AAAAGACT,0.0632
23,AATGTCAT,0.00939
24,GACGAGAC,0.0394
25,CGCTCTAA,0.122

row,Sequence,PBM E-score
1,TAGGGCCA,-0.191
2,AAAAGTTG,-0.0427
3,TAGGCTGA,-0.0698
4,CGCCAATC,0.0223
5,ACCGTCAG,-0.0757
6,CAAACTCA,-0.126
7,CGCAGGAC,-0.187
8,CATATATG,-0.16
9,CGAGGGGC,0.105
10,CCCACTCG,0.169
11,ATTAGTTC,-0.026
12,ACCTTTCC,-0.186
13,CCGAACAA,0.0223
14,AAGGTTGA,-0.129
15,CTCAGCAG,-0.136
16,CGTTCACA,0.354
17,CACCAGGA,-0.0946
18,TACGGTGA,0.327
19,GCCAGGGC,-0.132
20,CTCTGCCC,-0.211
21,AAGGACTA,-0.303
22,AGCGGGCC,-0.0852
23,CGCCCTCC,-0.179
24,ACTTCTTC,0.0168
25,TCAGAAAA,-0.153

row,Sequence,PBM E-score
1,AAGGTCAC,-0.258
2,CCTGCTGA,-0.133
3,CCCCTCTA,-0.101
4,AACTACAG,-0.0598
5,GAGCAAGC,-0.0288
6,AGGGGGAA,-0.27
7,AATCTAGT,0.0673
8,CGCTTGAC,-0.0303
9,CGTATTAC,0.325
10,GACCCTAA,-0.0466
11,GAGTTTAA,0.128
12,ATTCAGGG,-0.252
13,CGCATTGA,0.0874
14,CGGATGAC,0.13
15,CTCTGAAC,0.124
16,AATTTCTG,0.152
17,GAGCATAA,0.0722
18,AAATTTAA,0.184
19,ATACGTAG,0.26
20,GTTCTGCA,0.0392
21,CCGTGCTA,-0.196
22,ACTCAGCC,-0.269
23,TCTCGTAA,0.434
24,GTATTCAC,0.0672
25,CCCAGTCG,0.00621

row,Sequence,PBM E-score
1,ATGCTACG,0.177
2,AAACGTAC,0.33
3,ACATGAAC,0.105
4,ATCACAGG,-0.223
5,TGCTCCAA,-0.146
6,CCATAGGC,-0.129
7,ACGAGCTG,0.36
8,CAAGCGCA,0.118
9,CTTCTGAC,-0.203
10,CGCCTCTC,-0.224
11,GAATGCTC,-0.137
12,CAGGCTGA,-0.283
13,CCACCAAC,-0.112
14,TAAAGACA,-0.156
15,ACCGGCGT,0.143
16,TCGCTACA,-0.0174
17,ATGAATGC,-0.0709
18,CTCATAAC,-0.125
19,ATGACAAT,0.0715
20,CTTGAGAC,-0.196
21,CATGACCG,0.0106
22,CACGAATG,0.0101
23,ACGCCTTC,-0.0211
24,AGACCTCT,0.0513
25,ATAGGTAA,0.0176

row,Sequence,PBM E-score
1,ACTGCACT,-0.0735
2,CGCAAAAC,0.169
3,CTCACCGC,-0.19
4,GCACCCGC,0.0103
5,AGGGTGAT,-0.0881
6,CGAATCGC,0.132
7,AGTTAATA,-0.0115
8,AGACAGCT,-0.258
9,GGGAAGAA,-0.138
10,ACACAAGG,-0.231
11,ATAGGTCG,-0.035
12,ATCCTGCG,0.0647
13,TCCTTCCA,-0.158
14,CATTATTC,-0.172
15,CGAAGACC,-0.0395
16,AGTCGCCA,-0.214
17,CTCTTAAG,0.101
18,ATCCCCGG,-0.103
19,CTTTGAGC,-0.0943
20,ATGCCCAT,-0.178
21,ACTGCACA,-0.125
22,CATCGTCG,0.106
23,ACCTTTCA,-0.0653
24,GACGATCC,-0.0721
25,ACGCGGCG,0.136

row,Sequence,PBM E-score
1,CTATGGGA,-0.173
2,AAGTGCCC,-0.317
3,AGAACAGC,-0.0576
4,ATCATAGC,-0.184
5,GAACTACC,-0.153
6,GAACACGC,0.0136
7,CTGCTGAC,0.096
8,CTAATCTA,-0.181
9,GTCCTAGA,-0.118
10,TGACGTCA,-0.0522
11,AAACCATG,-0.00076
12,TCTTAAGA,-0.0586
13,AAATCGGG,-0.133
14,ATATCTAA,0.0945
15,CTCGGAGA,-0.0454
16,GTCAGATA,-0.028
17,ACGCTCAC,0.122
18,GATACAGC,-0.0649
19,CTGATTGC,-0.17
20,AAGAGCCT,-0.152
21,ATGCTAAG,-0.173
22,AACGTGTG,0.022
23,CTCCAATC,-0.0328
24,GCCCAACC,0.0505
25,CAGACACG,0.00983

row,Sequence,PBM E-score
1,ATATTGTC,0.147
2,AAGACTCA,-0.172
3,AGTTGCAA,-0.0411
4,ACGCACTC,0.151
5,AGTAGCAT,-0.0507
6,AAACTTGA,-0.128
7,ACTGCCGA,0.0329
8,CACACAAC,-0.0306
9,GCTACAGC,-0.0661
10,GATTGGCC,-0.177
11,AAACAGTT,-0.118
12,GCCCCCCA,-0.328
13,ACTTTTCT,-0.047
14,ATGCTGCA,-0.162
15,AACCCGCT,-0.2
16,ACTGAATA,0.0517
17,AGAGACCA,-0.186
18,AACGACTA,0.379
19,TCCGGCAA,-0.147
